Results on 38 compounds are retold here after paper PMC12040169 (PLOS Biology, 2025).

This assay deals with T1, C. trachomatis L2/434/Bu expressing GFP (CTL2-GFP).
T1 construct: L2/434/Bu GFP intracellular growth in HeLa cells
More on the design: species or system HeLa; C. trachomatis total inclusion area by high-content imaging, normalised to DMSO. Conditions: total inclusion area; 28.5 h, 10 µM; inhibitor. The method, boiled down: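 Imaging read-out: GFP inclusions and Hoechst nuclei captured by high-content imaging after fixation. Inclusion area/number = chlamydial growth; nuclei count = host cell viability. MIC calculated per earlier method.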

The other results are listed elsewhere or left out.

Turning to `CC(Oc1cccc(F)c1)C(=O)N(Cc1cccnc1)CC1CCCO1` (centres unmarked) [CBK305313], the “% of control remaining” value is 92.0779.
As for `COc1ccc(S(=O)(=O)NCCNC(=O)c2cc(-c3cccc(S(C)(=O)=O)c3)cnc2NCC2CC2)cc1` [CBK076425], the figure is 106.245; as for `CN1CCC[C@H]1C(=O)Nc1cccc2cc[nH]c12` [CBK160098], 94.2898.
The result for `O=C(NCCCc1ccccn1)C1(c2ccccc2F)CC1` [CBK283155] reads 101.294; that for `c1cncc(COc2cncc(OC3CCN(Cc4ccc5c(c4)OCO5)C3)n2)c1` (centres unmarked) [CBK084458], 80.4387; that for `O=C(N/N=C/c1ccc(Cl)cc1Cl)c1nc(-c2ccccc2)cc(-c2ccccc2)n1` [CBK262814], 93.7715.
With `CC(=O)Nc1nn(Cc2cc3c(cc2Cl)OCO3)c2ccccc12` [CBK048251], the “% of control remaining” value was determined as 94.0628.
In the case of `CCc1cccc(C)c1NC(=O)C1C2CCC(O2)C1C(=O)O` (centres unmarked) [CBK263676], the “% of control remaining” value was found to be 95.7958.
For the compound `CC(C)(C)NC(=O)c1cccc(N2C(=O)c3ccc(C(=O)O)cc3C2=O)c1` [CBK287123], the “% of control remaining” value came to 76.6822.
The result for `CN(C)CCOC1OC(CO)C(O)C(O)C1O` (centres unmarked) [CBK012476C] reads 34.5983; that for `COC(=O)c1ccc(N2CCN(Cc3nc(C)no3)C(C)C2)cc1` (centres unmarked) [CBK305998], 66.5702; that for `O=C(CN1C(=O)C2CCC(c3ccccc3)CC2C1=O)Nc1cccc2ccccc12` (centres unmarked) [CBK268061], 98.8383.
As for `Nc1ccc(-c2cccc(C(F)(F)F)c2)c2ccccc12` [CBK084324], the figure is 52.0981.
For the compound `c1ccc(CC2CCN(CCOc3ccccc3)CC2)cc1` [CBK126433], the “% of control remaining” value is 109.938.
Regarding `CCOC(=O)C1CCCN(Cc2nc(-c3ccc(F)cc3F)oc2C)C1` (centres unmarked) [CBK306749], the “% of control remaining” value came to 62.3521.
For the compound `Cc1cccc(C)c1NC(=O)CN1CCN(c2nccnc2OC2CCCCC2)CC1` [CBK082835T], the “% of control remaining” value was 85.9036.
As for `S=C(Nc1cccc(Cl)c1Cl)Nc1nn(Cc2ccc(Cl)c(Cl)c2)cc1Cl` [CBK267109], the “% of control remaining” value was 107.208.
The result for `CN1CCC(N(C)C(=O)NCc2ccc(C#N)cc2)C1` (centres unmarked) [CBK156005] reads 95.8402; that for `O=C(O)[C@@H]1CC(O)CN1C(=O)c1ccc2noc(-c3ccccc3)c2c1` (some centres unmarked) [CBK286736], 93.9197.
As to `Cc1cc(OCc2nnc(SCC(=O)N3CCN(c4ccccc4)CC3)n2C)ccc1Cl` [CBK268611], the “% of control remaining” value stood at 92.5773.
On to `COc1cccc(C(NC(=O)C2COc3ccc(OC)cc3C2)c2ccccc2)c1` (centres unmarked) [CBK285713], for which the “% of control remaining” value was determined as 114.834.
`CC(=O)Oc1ccc2c(=O)cc(N(C)C)oc2c1C` [CBK016581]: the “% of control remaining” value was 93.1197.
On to `C=CCN1C(=O)CC2(C1=O)C(=O)N(CCCN1C(=O)c3ccccc3C1=O)c1ccc(Cl)cc12` (centres unmarked) [CBK075443], for which the “% of control remaining” value worked out at 122.097.
Take `COc1ccc(C)cc1C1(CNC(=O)C2CC2C(=O)O)CCOCC1` (centres unmarked) [CBK304492]: the “% of control remaining” value was 32.8595.
Consider `CCc1c(C)nc2c(C)cccc2c1SCC(=O)O` [CBK263554], for which the “% of control remaining” value is given as 88.2149.
Regarding `O=C(O)CCC(=O)Nc1ccc(-c2nc3cc(C(=O)c4ccccc4)ccc3[nH]2)cc1` [CBK267401], the “% of control remaining” value is given as 98.7337.
On to `CN(C)C(=O)CN1C(=O)CC2(C1=O)C(=O)N(CC(=O)O)c1ccc(F)cc12` (centres unmarked) [CBK076119], for which the “% of control remaining” value amounted to 99.7716.
With `O=C1CNC(=O)C2(C/C=C/C[C@H]3COCC[C@H]3N1)CCN(C(=O)Cc1cccnc1)CC2` [CBK292068], the “% of control remaining” value was found to be 101.62.
On to `Clc1ccc(CN2CCCN(c3cc(OC4CCCCC4)ncn3)CC2)cc1Cl` [CBK083338T], for which the “% of control remaining” value is 51.9501.
As for `Nc1nc(CSCCO)nc(Nc2ccc(F)cc2)n1` [CBK265542], the figure is 109.869; as for `CCCc1[nH]nc(O)c1Cc1ccccc1CS(=O)(=O)c1ccccc1` [CBK074347], 92.8812.
Consider `NCc1ccc(C(=O)N(CCc2cc(C(F)(F)F)cc(C(F)(F)F)c2)c2ccc(Cl)c(Cl)c2)cc1` [CBK008632T], for which the “% of control remaining” value came out at 30.6049.
For `CN1C(=O)CC(NCc2ccc(S(N)(=O)=O)cc2)C1=O` (centres unmarked) [CBK262352], the “% of control remaining” value is on record as 104.361.
Take `CCN(CC)C(=O)[C@@H]1CCCN(C2CCN(C(=O)c3c4ccccc4cc4ccccc34)CC2)C1` [CBK066966C]: the “% of control remaining” value was found to be 89.9903.
In the case of `CC1(C)CC(=O)C2=C(C1)Nc1ccccc1N(CC(=O)O)C2c1cccs1` (centres unmarked) [CBK286597], the “% of control remaining” value is 84.7115.
On to `Cc1cc(S(=O)(=O)Nc2cc(C3CC3)nn2C)c(C)cc1Cl` [CBK043994], for which the “% of control remaining” value was determined as 80.9483.
The result for `CCc1c(C)nc2c(C(=O)NCCCOC)cnn2c1C` [CBK162149] reads 103.491; that for `O=C(NC(c1ccc(-c2ccccc2)cc1)c1cnccn1)C1CCN(CCc2ccc(F)cc2)CC1` (centres unmarked) [CBK147981], 99.3081.
